Measured values taken from the RNAGym collection of RNA variant scans (doi:10.7554/elife.90254).
Read counts are not given, so values of variants with three or more changes are uncertain.

B1: OR4K15 (parent)
chain: GUUAACGGUCAUAGGCCAUGGAAACUAGGAGCACCAUUUCGCUGCCAGUGAAGAAAUGAACAAAGAAAAUCUGGGCCAGGCAGGCAUCAAAAGAAAUAGUCUUGCGCUCAACCAGAAAGUCUGUAAUCAUUUUAAGGGUA

Variants of: B1
Experiment: self-cleavage, relative activity (ratio to wild type); higher = more cleavage; in vitro, sequencing; the parent is a self-cleaving ribozyme

Variant	self-cleavage
A5G A55G A68G	0.51
A5C A98G U132A	0.38
A5G A27U A82G A92G	0.98
A5G A30G A33U A78C A95C	0.26
A5G A78U U122C	0.33
A5G A56G G79A A95G	0.16
A5G U12G A63G U72G	0.93
A5G A22G A67G A118G	0.87
A5U A56G U100C	0.5
A5C U103C A114U	0.15
A5G U43C A116G	1.34
A5G A30G A33G A55U	0.96
A5G U39A A135G	1.04
A5U U9C A23U A111G	0.16
A5G A68G A114U	0.17
A5G U26C A63G A95G	2.06
A5G A33G A47U A54G A64U C77U U102C U108C	0.04
A5G G21A A60G A89G	1.28
A5G A52G U108C	0.13
A5G A24G U38C A52G A78G A114C	0.06
A5U A24G A135G	0.93

Variant	self-cleavage
A5G A23G A52C A91U A118G A126G	0.56
A5G G8A A125G	0.63
A5G C34U A86G	0.83
A5U A36G U38C U131C	1.78
A5C A67G A111U	0.19
A5G U108C A111G	0.09
A5G U57C U72C	0.18
A5G U37C A68U A96G U130C	0.9
A5G A33C A64G A90G	0.99
A5G U87A A110U	1.43
A5U U9C A51G A89G U122C	1.42
A4G U26C A47U A54G G138A	0.69
A5U U12G A78U A117G U139A	0.72
A5G A62G G84A U130C U132C	1.46
A5G C6U A64G A82G A91G	0.13
A5G A66C A117G	0.73
A5G A52G A68G G84A U87C	0.93
A5G A47G U49G A60U C88A	1.59
A5G U39C G73U U139C	0.61
A5G A66G U131C	1.62
A5G A118G U124C	0.69

Variant	self-cleavage
A5G U70C A96G A111G U132C	0.03
A5G U72C U108C	0.05
A4G U39C A94U	2
A5U A54G U57G A67G U108C	0.07
A5G A23G U38C A96G U120C A126G	1.01
A5C U9A A11U C32A U72A A116G U132C	0.08
A5G G53U A98G G138A	0.59
A5G G58U C105U	0.24
A5U A51G A64U A90G A111G	0.09
A5U A52U U72C A118U	0.17
A5C A23G C88A U122C	1.8
A4G U43A A78C A91G U131A	0.18
A5G A59G A114U A118G	0.1
A4U G41U A78U U100C U124C A125G	0.84
A5G U19A A60G A78C A92G A111G A129G	0.01
A5U U9A A22U A67G	1.37
A5G A56G U103A U124A	0.4
A5G A18U A64G A98G	0.74
A5G U9C A96G U130C	0.67
A5U A11U A13G A110G	0.14
A5U A82G U131C	0.12

Variant	self-cleavage
A5G A27G A78U A86G	0.16
A5G U19C A86G U87C	1.02
A5G C40U A125G	0.54
A5G A18G U26C A116G	0.53
A5G U39C A55U A69G	1
A5G A91U A110G	0.4
A5G U39C A96G U103C A118G	0.09
A5U U37C A56G	1.65
A5G U12C A66U A78C U87C A92G	0.25
A5G A22G U38C A86U U103C	1.08
A5G A55G A67G	0.49
A5U A54G A90G U132A	0.97
A5G G74A A92G U108C U120C	0.01
A5C A62G A89G A94U	1.5
A4U U12A A118G	0.65
A5G A78U A111G A117G	0.01
A5G U72A A125U	0.53
A4G U26C U103A U108C A110G	0.04
A5G U133C U139A	0.57
A5G A22G A86G	0.79
A5G A13U A23G	1.09
